Source: the RNAGym collection of RNA variant scans (doi:10.1093/nar/gkz1192)
Read counts are not given, so values of variants with three or more changes are uncertain.

B1: CPEB3 Ribozyme (parent)
chain: UAACAGGGGGCCACAGCAGAAGCGUUCACGUCGCAGCCCCUGUCAGAUUCUGGUGAAUCUGCGAAUUCUGCUGUAUAUCUC

Variants of: B1
Experiment: self-cleavage, relative activity (ratio to wild type); higher = more cleavage; in vitro, sequencing
Procedure, shortened: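 Relative activity was defined as the cleaved/total read fraction for a variant divided by the same fraction for the unmutated ribozyme. CPEB3 self-cleaving ribozyme libraries were made by rounds of error-prone PCR, barcoded, and transcribed in vitro with T7 RNA polymerase for 5 hours at 37°C, and cleavage ran through transcription plus a 15 min DNase I step before EDTA. Illumina sequencing of template-switched reverse transcripts gave the reads, and DNA sequencing mapped the barcodes. Averages come from three batches, using variants with at least 5 reads.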

Row | Variant | self-cleavage
1 | UAACAGGGGGCCACAGCAGUAGCGUUCACGUCGCAGCCCCCGUCAGGUUCUGGUGACUCUGCGAAUUCUGCUGUAUAUCUC | 0.14
2 | UAACAGGGGGCCACAGCAGUAGCGUUCACGUCGCAGCCCCCGUCAGAUUCUGGUGAAUCUGCGAAUUCUGCUGUAUGUCUC | 0.27
3 | UAACAGGGGGCCACAGCAGUAGCGUUCACGACGCAUCCCCUGUCAGAUUCUGGUGAAUCUGCGAAUCCUGCUGCAUAUCUC | 0.25
4 | UAACAGGGGGCCACAGCAGAGGCGUUCGCCUCGCAGCCCCUGUCAGAUUCUGGUGAAUCCGCGAUUUCUGCUGUAUAUCUC | 0.06
5 | UAACAGGGGGCCACAGCAGACGCGCUCACGUCGCAGCCCCUGUCAGAUUCGGGUGAAUCUGCGAAUUCUGCAGUAUGUCUC | 0.09
6 | UAACAGGGGGCCACAGCAGUAGCGUUCACGUCGCAGCCCCUGUCAGAUCCUGGUGGAUCUGCGAAUUCUGCUGUAUAUCUC | 0.33
7 | UAACAGGGGGCCACAGCAGUAGCGUUCACGUCGCAGCCCCAGUCAGAUUCUGGUGAAUCUGCGAAGUCUGCUGCCUAUCUC | 0.05
8 | UAACAGGGGGCCACAGCAGUAGCGUUCACGUCGCAGCCCCUGUCAGAUUCCGGUGAAUCUGCGUAUUCUGCUGUAUAUCUC | 0.16
9 | UAACAGGGGGCCACAGCAGUAGCGUUCACGACGCGGCCCCUGUCAGAUUCUGGUGACUCUGCGAAUUCUGCUGUAUAUCUC | 0.16
10 | UAACAGGGGGCCACAGCAGACGCAUUCACGUCGCAGCCCCUGUCAGAUUCUGGUGAAUCCGCGAAUUCUGCUGUAUAUCUC | 0.13
11 | UAACAGGGGGCCACAGCAGUAGCGUUCACGCCGCUGCCCCUGUCAGAUUCUGGUGAAUCUGCGCAUUCUGCUGUAUAUCUC | 0.1
12 | UAACAGGGGGCCACAGCAGAGGCGUUCGCGUCGCGGCCCCUGUCAGAUUCUGGUGAAUCUGCGAAUUCUGCCAUAUAUCUC | 0.85
13 | UAACAGGGGGCCACAGCAGUAGCGUUCACGUCGCAGCCCCUGACGGAUUCUGGUGAAUCUGCGAAUUCUGCUGUAUAUACC | 0.3
14 | UAACAGGGGGCCACAGCAGACGCGCUCACGUCGCAGCCCCUGUCAGAAUCUGGUGAAUCUGCGAAUUCUGCUGUAUAUCUC | 0.21
15 | UAACAGGGGGCCACAGCAGUAGCGUUCACGUCGCAGCCCCUGUCAGAUUCUGGUGAAUCUGCGAAGUCUGCUGCAUAUCUC | 0.49
16 | UAACAGGGGGCCACAGCAGUAGCGUUCACGUCGCAGCCCCCGUCAGAUCCUGGUGUAUCUGCGAAUUCUGCUGUAUAUCUC | 0.16
17 | UAACAGGGGGCCACAGCAGACGCGUUCACGUCGCAGCCCCAGUCAGGUUCUGGUGAAUCUGCGGAUUCUGCUGUAUAUCUC | 0.07
18 | UAACAGGGGGCCACAGCAGACGCGUCCACGUCGCAGCCCCUGUCAGAUCCUGGUGAAUCUGCGAAUUCUGCUGUAUAUCUC | 0.07
19 | UAACAGGGGGCCACAGCAGUAGCGUUCACGUCGCAGCCCCUGUCAGAUUCUGGUGAAUCUGCGAAUUCCGCUGCAUGUCUC | 0.12
20 | UAACAGGGGGCCACAGCAGUAGCGUUCACGUCGCAGCCCCUGUCAGAUUCUGGUGAAUCUGCGAAUUCAGCCGUAUAUCUC | 0.16
21 | UAACAGGGGGCCACAGCAGUAGCGUUCACGUCGCAGCCCCCGUCAGAUCCUGGUGAAUCUGCGAAUUCUGCAGUAUAUCUC | 0.31
22 | UAACAGGGGGCCACAGCAGUAGCGUUCACGUCGCAGCCCCUGUCAGACUCUGGUGAAUCUGCGAAUUCUGCUGAAUAUCAC | 0.13
23 | UAACAGGGGGCCACAGCAGUAGCGUUCACGUCGCAGCCCCUGUCAGAUUCCGGUGAGUCUGCGUAUUCUGCUGUAUAUCUC | 0.1

Row | Variant | self-cleavage
24 | UAACAGGGGGCCACAGCAGAGGCGUUCGCGCCGCAGCCCCUGACAGAUUCUGCUGAAUCUGCGGAUUCUGCUGUAUACCUC | 0.03
25 | UAACAGGGGGCCACAGCAGUAGCGUUCACGUCGCAGCCCCCGUCAGAUUCUGGUGAAUCUGCGUAUUCUGCCGUGUAUCUC | 0.12
26 | UAACAGGGGGCCACAGCAGACGCGUUCUCGUCACAGCCCCUGACAGAUUCUGGUGAAUUCGCGAAAUCUGCUGUAUAUCUC | 0.11
27 | UAACAGGGGGCCACAGCAGUAGCGUCCACGCCGCAGCCCCUAUCAGAUUCUGGUGAAUCCGCGAAUUCUGCUGUAUAUCUC | 0.24
28 | UAACAGGGGGCCACAGCAGUAGCGUUCACGUCGCAGCCCCUGUCAGAUUCUGGUGAAGCAGCGUAUUCUGCUGUAUAUCUC | 0.14
29 | UAACAGGGGGCCACAGCAGUAGCGUUCACGUCGCAGCCCCUGUCAGAUCCUGGUGAUUCUGCGAAUUCUGCCGUAUAUCUC | 0.44
30 | UAACAGGGGGCCACAGCAGUAGCGUUCACGUCGCAGCCCCUGUCAGAUUCUGGUGAACCCGAGAAUUCUGCAGUAUAUCUC | 0.11
31 | UAACAGGGGGCCACAGCAGACGCGCUCACGUCGCAGCCCCUGUCGGACUCUGGUGAAUCUGCGAGUUCUGCUGUAUGUCUC | 0
32 | UAACAGGGGGCCACAGCAGAGGCGUUCGCGUCGCAGCCCCUGUCAGAUUCUGGUGAAUCUGUGAAUUCUACUGUAUAUCUC | 0.1
33 | UAACAGGGGGCCACAGCAGACACGUUCACGUCGCAGCCCCUGUCAGAUUCUGGUGAAUCGGCGAAUUCUGCUGUAUAUCUC | 0.42
34 | UAACAGGGGGCCACAGCAGACGCGUUCACGUCGCGGCCCCUGUAAGAUUCUGGUGAAUCCGCGAAUUCCGCUGUAUAUCAC | 0.13
35 | UAACAGGGGGCCACAGCAGACGCGUUCACCUCGCAGCUCCCGUCAGAUUCUGGUGAAUCUGCGAAUUCUGCUGUAUAUCUC | 0.16
36 | UAACAGGGGGCCACAGCAGUAGCGUCCACGUCGCAGCCCCUGUCAGAAUCUGGUGAAUCUGCGAAUUCCGCUGUAUAUCUC | 0.31
37 | UAACAGGGGGCCACAGCAGUAGCGUUCACGUCGCAGCCCCCGUCAGAUCCUGGUGGAUCUGCGAAUUCUGCUGCAUAUCUC | 0.42
38 | UAACAGGGGGCCACAGCAGACGCGUUCACGUCGCGGCCCCUGUCAGAUUCUGGUGAAUCUGCGAAUUCUGCUGUAUAUCUA | 0.57
39 | UAACAGGGGGCCACAGCAGUAGCGUGCACGUCGCAGUCCCUGUCAGAUUCUGGUGAAUCUGCGAAUCCUGCUGCAUAUCUC | 0.06
40 | UAACAGGGGGCCACAGCAGUAGCGUUCACGUCGCAGCCCCUGCCAGAUUCUGGUGAAUCUGCGAAUUCUGUUGUAUAUCUC | 0.15
41 | UAACAGGGGGCCACAGCAGAGGCGUUCGCGUCGCAGCCCCUGUCAGAUUCUGGUGGAUCUGCGAAUUCUGCUGUAUAUCUC | 0.58
42 | UAACAGGGGGCCACAGCAGUAGCGUUCACGUCGCAGCCCCUGUCAGAUUCUGGUGAAUCUGCGAAUUCUGCUGAAUAUAUC | 0.64
43 | UAACAGGGGGCCACAGCAGUAGCGUCCACGUCGCAGCCCCUGUCAGAUUCUGGUCAAUCUGCGAAUUCUGCUGAAUAUCUC | 0.26
44 | UAACAGGGGGCCACAGCAGUAGCGUUCACGCCGCAGCCCCUGUCAGAUUCUGGUGAGUCUGCGAAUUCUGCUGUAUAUCUC | 0.08
45 | UAACAGGGGGCCACAGCAGACGCGCUCACGUCGCGGCCCCUGUCAGAUUCUGGUGAAUCUGCGAAUUCUGCUGUAUAUCUC | 0.69
46 | UAACAGGGGGCCACAGCAGUAGCGUUCACGUCGCAGCCCCUGCCAGAUUCUGAUGAAUCUGCGAAUUCUGCAGUAUAUCUC | 0.1

Row | Variant | self-cleavage
47 | UAACAGGGGGCCACAGCAGACGCGUUCACGUCGCAGCCCCUGUCAGAUUCUGGUGAAUCUGCGAGUUCUGCUGUAUGUCAC | 0.17
48 | UAACAGGGGGCCACAGCAGUAGCGUACACGUCGCAGCCCCAGUCAGAUCCUGGUGAAUCUGCGAUUUCUGCUGUAUAUCUC | 0.07
49 | UAACAGGGGGCCACAGCAGUAGCGUACACGUCACAGCCCCUGUCAGACUCUGGGGAAUCUGCGUAUUCUGCUGUAUAUCUC | 0.06
50 | UAACAGGGGGCCACAGCAGUAGCGUUCACGUCGCAGCCCCUGCCAGAUUCUGGUGAAUCUGCGAACUCAGCUGUAUAUCUC | 0.21
51 | UAACAGGGGGCCACAGCAGAGGCGUUCGCGUCGCGGCCCCUGUCAGAUUCUGGUGGGUCUGCGAAUUCUGCUGUAUAUCUC | 1.27
52 | UAACAGGGGGCCACAGCAGUAGCGUCCACGCCGCAGCCCCUGCCAGAUUCUGGUGAAUCCGCGAAUUCUGCUGUAUAUCUC | 0.17
53 | UAACAGGGGGCCACAGCAGUAGCGUUCACGUCGCAGCCCCAGUCAGAUUCUGGUGAACCUGCAAAUUCUGCUGUAUAUCUC | 0.02
54 | UAACAGGGGGCCACAGCAGACGCGUUCACGUCGCAGCCCCUGUCAGAUUCAGGUGAGUCUGCGAAUUCUGGUGUAUACCCC | 0.04
55 | UAACAGGGGGCCACAGCAGUAGCGUUCACGUCGCAGCCCCUGUCAGAUCCUGGUGAAUUUGCGAAUUCUGCUGUAUAUCUC | 0.11
56 | UAACAGGGGGCCACAGCAGUAGCGUUCACGUCGCAGCCCCAGUCAGAUUCUGGUGAAUCAGCGGAUUCAGCUGUACAUCUC | 0.03
57 | UAACAGGGGGCCACAGCAGUAGCGUUCACGUCGCAGCCCCUGUCAGAUUCUGGUGAAUCUGCGAACUCUGCAGUGUACCUC | 0.1
58 | UAACAGGGGGCCACAGCAGACGCGUUCACGUCGCAGCCCACGUCAGAUUCUGGUGUAUCUGCGGAUUCUGCUGUAUAUCUC | 0.14
59 | UAACAGGGGGCCACAGCAGUAGCGUUCACGUCGCAGCCCCUGUCAGAUUCUGGCGAAUCUGCGAAUUCUGCUGUAUAUAUC | 0.39
60 | UAACAGGGGGCCACAGCAGUAGCGUUCACGUCGCAGCCCCAGUCAGAUUCUGGUGAAUCUGCGAAUUCCGCUGUAUAUCUC | 0.17
61 | UAACAGGGGGCCACAGCAGUAGCGUUCACGUCGCAGCCCCUGUCAGAUUCUGGCGAAUAUGCGAAUUCUGCUGUAUUUCUC | 0.17
62 | UAACAGGGGGCCACAGCAGUAGCGUCCACGUCGCAGCCCCUGUCAGAUUCUGGUGAAUCUGCGAACUCUGCUGUAUAUCUC | 0.09
63 | UAACAGGGGGCCACAGCAGUAGCGUUCACGUCGCAGCCCCUGUCAGAUUCUGGUGAAUCCGCGAAUUCUACUGUAUAUCUC | 0.11
64 | UAACAGGGGGCCACAGCAGAGGCGUUCGCGUCGCAGCCCCCGUCAGAUUCUGGUGAAUCUGCGAAUUCAGCUGUAUAUCUC | 0.28
65 | UAACAGGGGGCCACAGCAGUAGCGUUCACGCCGCAGCCCCAGCCAGAUUCUGGUGAGUCUGCGAGUUCUGCUGUAUACCUC | 0.05
66 | UAACAGGGGGCCACAGCAGUAGCGUCCGCGUCGCAGCCCCAGUCAGAUUCUGGUGAAUCUGCGAAUUCUGCUGCAUAUCUC | 0.21
67 | UAACAGGGGGCCACAGCAGACGCGUUCACGUCUCAGCCACUGUCAGAUUCUGGUGAAUCUGCGAAUUCUGCUGUAUAUCUC | 0.19
68 | UAACAGGGGGCCACAGCAGUAGCGUUCACGUCGCAGCCCCUGUCAGACUCUGGUGAGUCUGCGAAUUCUGCUGUAUAUCUC | 0.29
